# Measured values taken from PubChem BioAssay AID662 (National Center for Advancing Translational Sciences (NCATS), 2007).
# Among all 71,000 compounds or so, about 1,800 (2.5%) were called active. The inconclusive results got no clear call from the source; some entries with a clear call stand among them for comparison. The call rests on the fitted dose curve; in most records, active means well fitted activation curve with a large enough effect in the signal ratio, with a control signal flat (not every such curve was filed as active); inconclusive means small, poorly fitted or top-dose-only effect, or effect the other way, or a change in a side signal; inactive means flat fitted curve, though single readings scatter; the % refers to the signal ratio. Potencies beside an inconclusive call are fits to weak or partial responses and may not hold up.
# Test: Cell signaling CRE-BLA (Fsk stim); on activity change, negative = inhibition: % of control where 0% means no effect
# Conditions: CHO CRE-bla reporter (cAMP response element driving beta-lactamase), forskolin EC10, beta-lactamase ratio; activity change, negative = inhibition: at 38.2 µM (top of the series) unless noted
# How it was run: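 CRE-bla CHO cells stimulated with EC10 NKH 477 (water-soluble forskolin) and compound titrations, 3 h at 37C; beta-lactamase read with CCF4 after 2 h at room temperature. Activity from 460/530 nm emission ratio, AC50 values for positive or negative modulation.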
# Potency means the concentration at half of the fitted maximal effect; tags describe the fitted curve by direction and shape.
SMILES,"activity change, negative = inhibition",Potency
O=c1cnc2cnc(Nc3ccccc3)nc2n1C1CC1,inactive: 0.127%,–
COc1cc(CNc2ccc3c(c2)CCC3)cc(OC)c1O,–,"inconclusive: 0.02 µM [rising, full curve, poor fit]"
O=C(NC1CCCCC1)C(c1ccccc1F)N(Cc1ccco1)C(=O)Cn1nnc2ccccc21 (configuration not stated),inconclusive: -2.7%,–
COc1ccc(-c2nc3cnc(N(C)C)nc3n(C)c2=O)cc1,–,active: 2 µM
O=C(O)c1ccccc1NCc1ccncc1,inactive: 6.78%,–
C#C[C@]1(O)CC[C@@H]2[C@H]3CCC4=CCCC[C@@H]4[C@@H]3CC[C@@]21C,inactive: -5.3% [at 17.1 µM],–
O=S(=O)(c1ccc(F)cc1)N1CCN(c2ncnc3c2cnn3-c2ccccc2)CC1,inconclusive: 21%,–
CCCCc1c(O)c2ccccc2[nH]c1=O,inactive: -0.732%,–
COCC(=O)N1CCC2(CCCN(c3ccc(-c4ccccc4)cc3)C2)CC1,inconclusive: 7.54%,–
COc1ccccc1-c1nc(-c2ccc(Br)cc2)no1,inactive: -3.77%,–
CCOC(=O)N1CCC(N2Cc3cccc(C(=O)N4CCN(C5CCCCC5)CC4)c3C2=O)CC1,inactive: -5.95%,–
O=C(OCC(=O)N1CCCCCC1)c1n[nH]c(=O)c2ccccc12,–,"inconclusive: 0.1 µM [falling, partial curve, poor fit]"
Cc1nc2ccccn2c1C(=O)c1ccccc1,–,"inconclusive: 2.51 µM [falling, partial curve]"
COC(=O)[C@@]1(Cc2ccc(F)cc2)[C@H]2c3cc(C(=O)N4CCCC4)n(CCSCCO)c3C[C@H]2CN1C(=O)c1ccccc1,inactive: -19.1%,–
CSc1cccc(NC(=O)CSc2nc3ccccc3o2)c1,–,"inconclusive: 10 µM [falling, partial curve, poor fit]"
COc1ccccc1-c1cc(C(F)(F)F)nc(S(=O)(=O)CCCC(=O)N2CCCCC2C)n1 (configuration not stated),inconclusive: -24.4%,–
Cc1cc(C)n2nc(SCC(=O)c3cc(C)n(-c4cc(C)on4)c3C)nc2n1,–,"inconclusive: 3.98 µM [rising, partial curve]"
CSc1ccc(S(=O)(=O)Nc2ccc(N3CCOCC3)c(Cl)c2)cc1,–,"inconclusive: 6.31 µM [rising, partial curve, poor fit]"
COc1cccc(C(=O)N2CCN(Cc3ccc4c(c3)OCO4)CC2)c1OC,inconclusive: -29.4%,–
COc1ccccc1-n1cnnc1SCC(=O)Nc1cc(C(C)(C)C)nn1-c1ccccc1,–,"inconclusive: 2.51 µM [falling, full curve]"
CCc1nnc(NC(=O)CN2CCN(c3nc(-c4ccccc4)cs3)CC2)s1,inactive: -3.59%,–
O=C(Nc1cccc(Cl)c1)c1ccc2c(=O)n3c(nc2c1)CCCCC3,–,"inconclusive: 3.16 µM [rising, partial curve]"
CN(C)S(=O)(=O)c1ccc(S(=O)(=O)N(Cc2ccco2)Cc2ccccc2Cl)cc1,inactive: 17.5%,–
Cc1cc(-c2ccccc2)n(-c2ccc(C(=O)N3CCN(c4ncccn4)CC3)cc2)n1,–,"inconclusive: 10 µM [rising, partial curve]"
O=C(c1cccc(Cl)c1)N1CCN(C2CCCCCC2)CC1,inactive: 2.37%,–
CCC(=O)c1cc(F)c(N2CCN(S(=O)(=O)c3ccccc3)CC2)cc1C,–,"inconclusive: 0.794 µM [rising, partial curve]"

SMILES,"activity change, negative = inhibition",Potency
CCNc1nc(NCC)nc(N(C)n2cnnc2)n1,inactive: 20.1%,–
CC(=O)c1cccc(NC(=O)C2CCN(S(=O)(=O)c3ccc(F)cc3)CC2)c1,inactive: -4.92%,–
O=C(O)c1cc(S(=O)(=O)N2CCCC2)ccc1Br,inconclusive: -5.33% [at 7.6 µM],–
Cc1cc(NC(=O)Nc2cccc3ccccc23)no1,inactive: -11.8%,–
N=C(N)SCc1cccc(-c2nc3ccccc3c(=O)o2)c1,inactive: 4.37% [at 7.6 µM],–
O=C(COc1ccc(Br)cc1)OCc1nnc(-c2ccccc2)o1,inactive: 3.23%,–
CCCCCCCCCCCCC/C=C\[C@@H](O)[C@H](CO)NC(C)=O,inactive: -7.79%,–
CCC(C)(C)n1nnnc1CN(Cc1cc2cc(OC)ccc2[nH]c1=O)C1CCCC1,inconclusive: 29.3%,–
CCCCCCCC/C=C\CCCCCCCC(=O)N[C@@H](CO)Cc1ccc(O)cc1,inactive: 1.28%,–
COc1ccc(Cn2c(C3CC3)nc3ccc(NC(C)=O)cc3c2=O)cc1,–,"inconclusive: 7.94 µM [rising, partial curve]"
CCOc1nc2ccccc2nc1NS(=O)(=O)c1ccccc1,inactive: -8.78%,–
CCOC(=O)c1ccc(NC(=O)CSc2nnnn2CCCO)cc1,inactive: 1.11%,–
CC1Cc2ccccc2N1C(=O)c1cc2c(=O)n3ccccc3nc2n1C (configuration not stated),–,active: 6.31 µM
CC1CC(C)CN(c2ncc3c(n2)CC(c2ccccc2Cl)CC3=O)C1 (configuration not stated),–,"inconclusive: 5.01 µM [rising, single point]"
COC(=O)c1cccc(NC(=O)CSc2nnc(COc3ccccc3)n2C)c1,inactive: -3.65%,–
N#Cc1c(NC(=O)c2ccncc2)sc2c1CCC2,inactive: -5.28%,–
CCCc1cc(COC)c(C#N)c(=O)[nH]1,inactive: 10.5% [at 7.6 µM],–
COC(=O)[C@@]1(Cc2ccc(OC)cc2)[C@H]2c3cc(C(=O)N4CCCC4)n(CCF)c3C[C@H]2CN1C(=O)c1ccccc1,inconclusive: -12.1%,–
O=c1[nH]c2ccccc2c2ccccc12,–,"inconclusive: 20 µM [rising, partial curve]"
Cc1cccc2c1nc(-c1ccccc1)n1nnnc21,inconclusive: 4.01%,–
CCC1(CC)NC(=O)N(CC(=O)OCC(=O)Nc2cc(C)ccc2C)C1=O,–,"inconclusive: 5.01 µM [falling, single point]"
CCS(=O)(=O)Nc1ccc(-c2ccc(NS(=O)(=O)CC)c(OC)c2)cc1OC,–,"inconclusive: 15.8 µM [rising, partial curve]"
COCCNC(=O)NC(=O)COC(=O)C12CC3CC(CC(NC(C)=O)(C3)C1)C2,–,"inconclusive: 3.98 µM [falling, partial curve]"
CC1=C/C(=C\c2ccc3c(c2)OCO3)C(=O)S1,inconclusive: -20.8%,–
CC(CC(=O)O)CC1=NS(=O)(=O)c2ccccc2N1 (configuration not stated),inconclusive: -14.2%,–
CC(=O)N1CCN(c2ccc(Oc3ncnc4sccc34)cc2)CC1,–,"inconclusive: 3.98 µM [falling, single point]"
